Reference: patent publication US20140357512A1, “HISTONE DEACETYLASE (HDAC) BIOMARKERS IN MULTIPLE MYELOMA” (priority 2013, published 2014)

System: human myeloma cell line MM.1S
Assay: SILAC acetylated-lysine peptide profiling, HDAC inhibitor vs DMSO (light/heavy ratio)
Assay type: cell-based
From the text: An embodiment of the invention comprises utilizing the SILAC method in order to quantitate changes in protein expression between two or more populations of cells. The SILAC method is a technique based on mass spectrometry that detects differences in protein abundance among samples using non-radioactive isotopic labeling. The SILAC method is known in the art, and described in detail in Ong et al., “Stable Isotope Labeling by Amino Acids in Cell Culture, SILAC, as a Simple and Accurate Approach to Expression Proteomics”, Molecular & Cellular Proteomics, vol. 1, pp. 376-386 (2002), which is incorporated herein by reference in its entirety.
Briefly, the SILAC method involves growing two populations of cells in cell culture. The first population of cells is grown in growth media containing normal amino acids (“normal media”). The second population of cells is grown in media lacking a standard essential amino acid (such as lysine), but is then supplemented with a non-radioactive, isotopically labeled form of that essential amino acid (such as lysine labeled with ^13C atoms, rather than normal ^12C atoms), which is called “heavy media”. When the two populations of cells are each growing in the medium, they incorporate the amino acids into all of their proteins. The growth of cells maintained in the heavy media is no different from that in normal media. All peptides containing the heavy amino acids are heavier than their normal counterparts. The cells from each of the two populations of cells are lysed. The lysates from each of the two cell populations are then combined. The combined cell lysates are then analyzed by mass spectrometry. Pairs of chemically identical peptides of different stable isotope composition can be differentiated in a mass spectrometer due to their difference in mass. The ratio of peak intensities in the mass spectrum for such peptide pairs reflects the abundance ratio for the two proteins.
This example describes SILAC studies that were performed to compare the effects of three different HDAC inhibitors (Compound A, Compound B, and tubastatin A) to a control on a human multiple myeloma cell line. The HDAC inhibitors were also compared amongst themselves to determine differences in their effects.
A human myeloma cell line MM.1S was grown using either ^12C (light) or ^13C (heavy) lysine containing culture medium. The “heavy” cells were treated with DMSO as the control, and the “light” cells were treated with a single HDAC inhibitor at 37° C. for 6 hours. The heavy and light cells were lysed, and the lysates were mixed in 1:1 ratio and digested with the protease trypsin. The acetylated lysine containing peptides (due to the action of the HDAC inhibitor) in the digested peptide pool were captured by a non-specific anti-acetylated lysine antibody cocktail (the antibodies identify both light and heavy acetylated peptides), and subjected to mass spectrometry analysis in order to identify thousands of individual peptides.
Thousands of peptides were identified in pairs (^12C and ^13C) due to their known mass differences. The amino acid sequence and quantitative ratio (Light/Heavy) of a given peptide in two differentially treated cell lysates were then determined and annotated with their possible protein (gene) sources.
As stated above, three HDAC inhibitors (Compound A, Compound B, and Tubastatin A) were used. Thus, the SILAC method was performed three times, with a different HDAC inhibitor compared to a control each time. Accordingly, there are three pairs of quantitative data in the table below, i.e., Compound A:DMSO, Compound B:DMSO, and Tubastatin A:DMSO. A cut-off of 1.30 fold of change (increase or decrease) was then used to determine “changed” or “+” in the table, and any peptides with a fold of change less than 1.3 fold were determined to be “unchanged” or “0” in the table. Those peptides that were not identified were marked as “NA” in the table. […]

For `CN1CCc2c(c3ccccc3n2Cc2ccc(C(=O)NO)cc2)C1` [Tub A], the “light to heavy ratio (L/H ratio) of acetylated peptide VLVGK(ac)NFEDVAFDEK (SEQ ID NO: 303)” value (Protein disulfide-isomerase [375], P4HB, drug:DMSO) was −0.41 log 2, the “light to heavy ratio (L/H ratio) of acetylated peptide NFEDVAFDEK(ac)K (SEQ ID NO: 286)” value (Protein disulfide-isomerase [385], P4HB, drug:DMSO) was −0.41 log 2 and the “light to heavy ratio (L/H ratio) of acetylated peptide SEVDMLK(ac)IR (SEQ ID NO: 295)” value (Putative annexin A2-like protein [302], ANXA2P2, drug:DMSO) was 0.41 log 2. For the same molecule, the “light to heavy ratio (L/H ratio) of acetylated peptide RMELK(ac)ADQLYK (SEQ ID NO: 275)” value (Pyruvate dehydrogenase E1 component subunit alpha testis-specific form mitochondrial [75], PDHA2, drug:DMSO) was 0.53 log 2, the “light to heavy ratio (L/H ratio) of acetylated peptide, log 2 scale” value (“light to heavy ratio (L/H ratio) … log 2 scale” below) (QGFNVVVESGAGEASK(ac)FSDDHYR (SEQ ID NO: 190), NAD(P) transhydrogenase mitochondrial [100], NNT) was 0.48 and the “L/H ratio of acetylated peptide EIDSVK(ac)[…] (SEQ ID NO: 73)” value (RAC2 [153], log 2 scale, drug vs DMSO) was −0.48. The “L/H ratio of acetylated peptide (ac)ADK(ac)EAAFDDAVEER (SEQ ID NO: 74)” value (RBBP4 [4], log 2 scale, drug vs DMSO) was 0.71, the “L/H ratio of acetylated peptide ACFYNLDK(ac)FR (SEQ ID NO: 75)” value (RBM17 [391], log 2 scale, drug vs DMSO) was −0.42 and the “L/H ratio of acetylated peptide LGLGEGAEEK(ac)SIPTLISR (SEQ ID NO: 76)” value (RCC1 [366], log 2 scale, drug vs DMSO) was −0.45. For the same molecule, the “light to heavy ratio (L/H ratio) … log 2 scale” value (RPAVK(ac)QFHDSK (SEQ ID NO: 203), 60S ribosomal protein L18a [143], RPL18A) was −0.54, the “L/H ratio of acetylated peptide FIDTTSK(ac)FGHGR (SEQ ID NO: 83)” value (RPL3L [373], log 2 scale, drug vs DMSO) was −0.45 and the “L/H ratio of acetylated peptide LNILK(ac)LAPGGHVGR (SEQ ID NO: 85)” value (RPL4 [239], log 2 scale, drug vs DMSO) was −0.48. For the same molecule, the “L/H ratio of acetylated peptide AASLK(ac)SNYNLPMHK (SEQ ID NO: 84)” value (RPL4 [274], log 2 scale, drug vs DMSO) was −0.57, the “L/H ratio of acetylated peptide NFLGEK(ac)YIR (SEQ ID NO: 86)” value (RPL9 [121], log 2 scale, drug vs DMSO) was −0.44 and the “L/H ratio of acetylated peptide TGCIGAK(ac)HR (SEQ ID NO: 77)” value (RPL11 [154], log 2 scale, drug vs DMSO) was −0.47. The “L/H ratio of acetylated peptide WFQQK(ac)YDGIILPGK (SEQ ID NO: 78)” value (RPL11 [169], log 2 scale, drug vs DMSO) was −0.64, the “L/H ratio of acetylated peptide IFAPNHVVAK(ac)SR (SEQ ID NO: 79)” value (RPL18A [41], log 2 scale, drug vs DMSO) was −0.51 and the “L/H ratio of acetylated peptide IEHIK(ac)HSK (SEQ ID NO: 80)” value (RPL21, SNORD102, SNORA27, RPL21P19 [97], log 2 scale, drug vs DMSO) was −0.44. For the same molecule, the “L/H ratio of acetylated peptide YLK(ac)YLTK (SEQ ID NO: 81)” value (RPL22 [84], log 2 scale, drug vs DMSO) was −0.38, the “L/H ratio of acetylated peptide INFDK(ac)YHPGYFGK (SEQ ID NO: 82)” value (RPL27A [47], log 2 scale, drug vs DMSO) was −0.52 and the “L/H ratio of acetylated peptide LK(ac)YALTGDEVKK (SEQ ID NO: 89)” value (RPS4X [53], log 2 scale, drug vs DMSO) was −0.38. For the same molecule, the “L/H ratio of acetylated peptide SFQK(ac)IQVR (SEQ ID NO: 90)” value (RPS7 [74], log 2 scale, drug vs DMSO) was −0.51, the “L/H ratio of acetylated peptide ELLTLDEK(ac)DPR (SEQ ID NO: 91)” value (RPS9 [66], log 2 scale, drug vs DMSO) was −0.52 and the “L/H ratio of acetylated peptide LQTQVFK(ac)LGLAK (SEQ ID NO: 92)” value (RPS9 [116], log 2 scale, drug vs DMSO) was −0.51. The “L/H ratio of acetylated peptide VANVSLLALYK(ac)GK (SEQ ID NO: 87)” value (RPS23 [135], log 2 scale, drug vs DMSO) was −0.46, the “L/H ratio of acetylated peptide LAVLK(ac)YYK (SEQ ID NO: 88)” value (RPS27A [104], log 2 scale, drug vs DMSO) was −0.52 and the “L/H ratio of acetylated peptide (ac)SIMSYNGGAIMAMK(ac)GK (SEQ ID NO: 124)” value (RcPSMB3 (Fragment) [15], log 2 scale, drug vs DMSO) was 1.00. For the same molecule, the “L/H ratio of acetylated peptide LAELK(ac)QECLAR (SEQ ID NO: 94)” value (SARNP 17], log 2 scale, drug vs DMSO) was −0.73, the “L/H ratio of acetylated peptide (ac)ATETVELHK(ac)LK (SEQ ID NO: 93)” value (SARNP [10], log 2 scale, drug vs DMSO) was −0.85 and the “light to heavy ratio (L/H ratio) … log 2 scale” value (SCAEWVSLSK(ac)AR (SEQ ID NO: 135), Isoform 1 of ATP synthase subunit d mitochondrial [109], ATP5H) was 0.75. The “L/H ratio of acetylated peptide ANLVFK(ac)EIEK (SEQ ID NO: 95)” value (SCP2 [438], log 2 scale, drug vs DMSO) was −0.49 and the “L/H ratio of acetylated peptide EGQNWLEK(ac)K (SEQ ID NO: 96)” value (SEC11C [147], log 2 scale, drug vs DMSO) was 0.48.
